Measured values from patent publication US20230414599A1, “NICOTINAMIDE, NICOTINAMIDE PRECURSORS AND NICOTINAMIDE METABOLITES AND COMPOSITIONS THEREOF FOR REDUCING THE TIME TO RESOLUTION OF SYMPTOMS IN PATIENTS WITH COVID-19 AND OTHER VIRAL INFECTIONS” (CONARIS RESEARCH INSTITUTE AG, priority 2020, published 2023).

Tested on: COVID-19

## NC(=O)c1cccnc1 [Nicotinamide, nicotinamide]
Patients with cough, fever and taste loss, n = 6, week 4 compared to baseline
  Change in fatigue: constant, %: 16.67%
Patients with cough, fever and taste loss, n = 6, week 6 compared to baseline
  Change in fatigue: constant, %: 33.33%
Patients with fever and taste loss, n = 8, week 4 compared to baseline
  Change in fatigue: constant, %: 12.50%
Patients with fever and taste loss, n = 8, week 6 compared to baseline
  Change in fatigue: constant, %: 25.00%

Like-named read-outs stand apart in the source and are kept apart here.
